The full ranking holds about 33,000 sequences; the median of “E-score (-0.5 to 0.5)” is about -0.017, and the highest 2% start at about 0.3. This is one part of the list.
target: T1, Sut1 (UniProt P53032); experiment: PBM E-score (8-mer binding enrichment) (E-score (-0.5 to 0.5)); higher = stronger / more preferred TF binding; most listed sequences are background and not binding sites; conditions: protein concentration: 200 nM; construct: GST-full length
T1 sequence: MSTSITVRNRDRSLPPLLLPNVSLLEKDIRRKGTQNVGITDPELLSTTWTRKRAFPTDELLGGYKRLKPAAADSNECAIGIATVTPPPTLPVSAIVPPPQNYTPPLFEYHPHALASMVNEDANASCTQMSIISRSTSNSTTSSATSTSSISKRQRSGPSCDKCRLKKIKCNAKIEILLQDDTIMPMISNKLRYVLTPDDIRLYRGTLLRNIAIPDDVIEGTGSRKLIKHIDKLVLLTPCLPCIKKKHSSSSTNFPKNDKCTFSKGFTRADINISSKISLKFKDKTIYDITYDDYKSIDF
Method in brief: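 The E-score, a modified Wilcoxon-Mann-Whitney statistic, was computed by the Universal PBM Analysis Suite for every ungapped eight-base word pooled with its reverse complement. Scans behind it were normalised with masliner after bound GST-tagged yeast transcription factors were detected with fluorescent anti-GST. The proteins, at about 100-200 nM, had been applied to universal all-10-mer Agilent arrays made double-stranded by primer extension.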

Row | Sequence | PBM E-score
1 | TAAGCTAA | 0.0524
2 | AGTACGGG | -0.112
3 | CACATCTG | -0.213
4 | CTTTCGGC | 0.0219
5 | CCTTCGTA | -0.101
6 | ATACCGGC | -0.0331
7 | CTGTTTAA | 0.197
8 | GACAAGTC | -0.0286
9 | ATGAATCA | 0.14
10 | ATAACGGG | 0.0139
11 | TTGATAAA | 0.328
12 | CCGTATCA | 0.118
13 | CTCTTCCA | 0.107
14 | ACATTATA | 0.16
15 | GCTAATAC | 0.0995
16 | CACGGGGA | -0.0337
17 | ATTACAAG | 0.21
18 | GTGGCCTA | -0.164
19 | CCCTTTCA | -0.253
20 | CAGCGAAA | -0.0168
21 | AGGACGCC | -0.259
22 | CTAATCAA | 0.126
23 | CGTCTAAC | -0.0531
24 | ATTAAGGC | 0.092
25 | CACTTTAC | 0.0727

Row | Sequence | PBM E-score
26 | ATGGGGTG | -0.191
27 | GGTTACGA | -0.0578
28 | AGGTCGAA | -0.0783
29 | GGTCCCAC | -0.18
30 | GGGTGGCA | -0.207
31 | CCAGGCGG | -0.0099
32 | CGACCCGA | -0.176
33 | AAGAATGT | 0.0552
34 | AGACGCGC | -0.199
35 | CCATAAAC | -0.122
36 | GTAAGCGA | -0.0422
37 | AGGCGGTA | -0.202
38 | CGAGCTCA | 0.0432
39 | CAGGTAAG | -0.119
40 | AATAGCGT | 0.143
41 | GAATGACA | 0.0261
42 | TCCGAGAA | 0.407
43 | CTGCAGGA | 0.127
44 | CATACACG | -0.00231
45 | AGCGTTTA | 0.0143
46 | TGCCTAAA | -0.00993
47 | CAACGCTG | -0.0923
48 | CAGAGTAC | -0.128
49 | CACGCATA | -0.0972
50 | AGAATCTG | 0.0536

Row | Sequence | PBM E-score
51 | GCTAAAAA | -0.0323
52 | ACGTCTTA | -0.206
53 | CCGCGGCC | -0.0143
54 | GACGGGCC | -0.167
55 | TAACTAAA | 0.0989
56 | CGCTGCCG | -0.223
57 | GCGCCGCA | -0.00935
58 | ATTAGGTA | 0.157
59 | ATCTCCCA | -0.155
60 | GCATAGGA | -0.0648
61 | ATCTTACC | 0.0115
62 | GCGCATAA | -0.166
63 | ACTAGGTG | -0.174
64 | AGCGCCCA | -0.407
65 | GTCCGCTA | 0.258
66 | GAAGTGAA | 0.00969
67 | ATCCGGTC | -0.00108
68 | GTCCATAA | -0.0692
69 | CCGGTCAG | -0.0559
70 | AATATCCT | 0.00199
71 | GCCTAGCA | -0.349
72 | ACTGCAAC | -0.189
73 | GACATGTA | 0.0695
74 | AAATGCCT | 0.00788
75 | CATCTAAA | 0.0229

Row | Sequence | PBM E-score
76 | GGGGCAAA | -0.167
77 | GCCGAAGA | 0.0758
78 | ACCACAAC | 0.0947
79 | ATTTAGCG | 0.0651
80 | GACTGCTA | -0.152
81 | CCGCCCAG | 0.0308
82 | ACTGCATA | 0.0736
83 | CAATGGAC | -0.107
84 | CTCGGGCC | -0.089
85 | ACTTAACT | 0.153
86 | CTGGGCTC | -0.266
87 | GAGCGAAA | 0.195
88 | CGAGTCCA | -0.139
89 | CCCAGACC | -0.143
90 | AAGGGTGA | -0.134
91 | CCGTCTCC | 0.0135
92 | CAGGAGCG | -0.0908
93 | GTGAGCGA | -0.0389
94 | AGGCTGAA | -0.0932
95 | GACCGTGC | -0.102
96 | AGAGACCC | -0.15
97 | ACTCGTAT | -0.0044
98 | CACACTAA | 0.169
99 | AAGTACGA | 0.124
100 | GGGACGGA | 0.0681

Row | Sequence | PBM E-score
101 | CAGGCATA | -0.184
102 | GATAGCAC | -0.0925
103 | GACTGCTC | -0.143
104 | TCCCACCA | -0.19
105 | GAAGCCGC | 0.0214
106 | CGGAACAG | 0.232
107 | AAAATGTT | 0.169
108 | GTAAATCA | 0.191
109 | GCTGGACC | -0.29
110 | GAGTAATC | 0.0879
111 | ATGTATCA | 0.129
112 | AGAATCAG | 0.0039
113 | AGTGCTCC | -0.0835
114 | CGAACCAC | -0.0343
115 | AACCGATT | 0.204
116 | ATGTGTGG | -0.0951
117 | GGCGGTAC | -0.0892
118 | GATGCGCA | -0.167
119 | TCAGCGCA | -0.0352
120 | CTGGTAAG | -0.0364
121 | ACATATTA | 0.181
122 | AAGAGGAA | 0.0255
123 | AGGTTTGA | 0.0404
124 | ACTCGTTA | 0.0423
125 | GGAGCGTA | 0.0804

Row | Sequence | PBM E-score
126 | ACAAATAT | 0.339
127 | TCTCTCAA | 0.143
128 | AGACAACA | 0.0054
129 | AAGACACC | -0.0814
130 | ATTAGTCC | 0.254
131 | AAACTAAC | 0.27
132 | AAGCGTTC | -0.0703
133 | GATTCCCA | -0.188
134 | AGACATCT | 0.0692
135 | AGCATCCT | -0.119
136 | AGCACCGG | 0.00205
137 | GGTGTAGA | -0.149
138 | GCCTGGCA | -0.3
139 | ATCTCCAC | 0.00944
140 | AATAAAAT | 0.297
141 | ATGCAATA | 0.024
142 | TCACTTCA | -0.0869
143 | GCAACAAC | 0.0444
144 | CGAAATAA | 0.313
145 | ACAACCAA | -0.0665
146 | GAGCATAC | -0.0746
147 | AAAGCTTA | 0.16
148 | AGTCCCAC | -0.142
149 | CGAATTCC | 0.097
150 | GAACCCCC | -0.397

Row | Sequence | PBM E-score
151 | AATAGTCC | 0.131
152 | ACCGAAGT | 0.133
153 | CGGACACA | -0.034
154 | GGGAGGAC | -0.285
155 | ATGCCTCC | -0.176
156 | CCCTCAGA | -0.309
157 | TTAGAGAA | -0.0956
158 | CGCTTGCC | -0.0742
159 | CACGGACG | 0.109
160 | CAATTAAA | 0.291
161 | CGACGTCA | -0.126
162 | AGTAAACC | 0.0445
163 | AGACTATA | 0.0103
164 | AATTTCCT | 0.104
165 | CAGGATCC | -0.045
166 | CCTTCAAC | 0.00395
167 | ACGACTGG | -0.116
168 | CCTGCCTC | -0.178
169 | CCCGTACG | -0.0873
170 | CGGGGCAA | -0.0211
171 | ATCGTCAT | 0.0553
172 | CACTAACA | -0.0229

Source: the supplement of paper PMC3334620
